Test results taken from PubChem BioAssay AID1379 (National Center for Advancing Translational Sciences (NCATS), 2008).
Out of some 200,000 compounds screened, about 560 (0.28%) were called active. Inconclusive results, whose numbers are uncertain, are shown with a selection of clear calls. Calls follow the shape of the dose curve; as a rule, active = well fitted inhibition curve with a large enough effect; inconclusive = small, poorly fitted or top-dose-only effect; inactive = flat fitted curve, though single readings scatter. No potency is given beside an inconclusive call; the fits are too rough.

target: Luciferin 4-monooxygenase (Photuris pensylvanica) (UniProt Q27757); assay: Counterscreen for Luciferase (Kinase-Glo TM) Inhibition; conditions: ATP luminescence, 8 min; series mostly up to 38.3 µM; activity change, negative = inhibition: at the top concentration; also: nearly all actives have a fitted effect of over 60% in size
Summary of the method: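 Compounds were added to a substrate mix at pH 7.2 (50 mM imidazole, 10 uM ATP, within the enzyme's linear range), followed by Kinase-Glo detection reagent; luminescence was measured after 8 minutes at ambient temperature.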
% is scaled to controls: 0 for no effect and ±100 for the full control effect; potency is read from the fitted curve at half-maximal effect; tags tell the direction and shape of the fitted curve.

Row | Structure (SMILES) | Potency | activity change, negative = inhibition
1 | CC1CCCN(C2=C(NS(=O)(=O)c3ccc(Cl)cc3)C(=O)c3ccccc3C2=O)C1 (stereo not drawn) | inconclusive [inhibitor, partial curve] | –
2 | O=C(O)/C=C/C(=O)Nc1ccccc1C(=O)OCC(=O)c1ccc2c(c1)OCCO2 | inconclusive [inhibitor, single point] | –
3 | O=C(Nc1ccc(OC(=O)c2ccco2)cc1)c1ccco1 | active: 12.6 µM | –
4 | c1ccc(-c2nnc(NC3=NCCC3)o2)cc1 | inconclusive [inhibitor, partial curve] | –
5 | Cc1cc(C2=NNC(=NC3CC3)SC2)c(C)n1-c1ccccc1 | inconclusive [inhibitor, partial curve] | –
6 | CN(C)/C=N/c1nc(-c2ccc3c(c2)OCO3)cs1 | inconclusive [inhibitor, single point] | –
7 | CCN1/C(=C/C(C)=C/c2sc3ccccc3[n+]2CC)Sc2ccccc21 | inconclusive [inhibitor, partial curve] | –
8 | c1ccc(Nc2nc3ccccc3o2)cc1 | active: 12.6 µM | –
9 | Cc1[nH][nH]c(=O)c1C(c1ccc(-c2ccc(C(=O)O)cc2)o1)c1c(C)[nH][nH]c1=O | inconclusive [inhibitor, partial curve] | –
10 | CCOC(=O)N1CCC(NC(=O)CCC(=O)N2CCOc3ccc(Cl)cc32)CC1 | – | inactive: 2.58%
11 | Cc1occc1C(=O)N/N=C/c1cccnc1 | inconclusive [inhibitor, partial curve] | –
12 | COCn1c(-c2ccc(OC)cc2)nc2ccccc21 | inconclusive [inhibitor, partial curve] | –
13 | CCOc1ccc(C(=O)NC(=S)NCc2cccnc2)cc1 | – | inactive: -0.0957%
14 | COC(=O)N(NC(=O)C(O)(c1ccccc1)c1ccccc1)c1ccc(C)cc1 | inconclusive [inhibitor, single point] | –
15 | O=C(Nc1ccc2c(c1)OCCO2)c1ccc(Br)o1 | inconclusive [inhibitor, partial curve] | –
16 | O=C(Nc1nsc(-c2ccccc2)n1)c1cccs1 | inconclusive [inhibitor, partial curve] | –
17 | COc1ccccc1Oc1ccc(N/C=C/C(=O)c2ccco2)cc1 | inconclusive [inhibitor, single point] | –
18 | Nc1nc(Nc2ccc(Cl)cc2)nc2ccccc12 | active: 14.1 µM | –
19 | O=[N+]([O-])c1ccccc1N/N=C/c1ccc2c(c1)OCO2 | inconclusive [inhibitor, partial curve] | –
20 | CCN1/C(=C/C=C/C=C/c2sc3ccccc3[n+]2CC)Sc2ccccc21 | inconclusive [inhibitor, partial curve] | –
21 | Cc1cc(N2CCN(S(=O)(=O)c3ccc4ccccc4c3)CC2)n2ncnc2n1 | – | inactive: -0.328%
22 | Cc1onc(-c2ccccc2)c1C(=O)NCc1ccc2c(c1)OCO2 | – | inactive: -0.964%
23 | O=C(/C=C/Nc1ccc(Oc2ccccc2)cc1)c1ccco1 | inconclusive [inhibitor, single point] | –
24 | O=c1c2sc(-c3ccccc3)cc2nc2n1CCC2 | inconclusive [inhibitor, partial curve] | –
25 | O=C(c1cnccn1)N1CCC[C@@]2(CCN(Cc3cc(C(F)(F)F)cc(C(F)(F)F)c3)C2)C1 | – | inactive: -2.77%
26 | O=c1[nH][nH]c(-c2ccccc2O)c1C(C[N+](=O)[O-])c1cccc(Cl)c1 (stereo not drawn) | – | inactive: -6.76%

Row | Structure (SMILES) | Potency | activity change, negative = inhibition
27 | N[C@@]1(C(=O)O)CO[C@H]2[C@H](C(=O)O)[C@H]21 | – | inactive: 1.1% [at 39.9 µM]
28 | CC(=O)c1sc(NC(=O)c2ccc(C)cc2)nc1C | inconclusive [inhibitor, partial curve] | –
29 | COC(=O)c1cn[nH]c1NC(=S)Nc1ccccc1C | – | inactive: 0.46%
30 | COc1ccc(-c2csc(CCN3N=C(C)CC3=O)n2)cc1 | – | inactive: -3.48%
31 | COc1cccc(/C=N/NC(=O)c2c(-c3ccccc3)noc2C)c1 | – | inactive: 0.0901%
32 | Fc1cccc(NCc2cn3ccccc3n2)c1 | inconclusive [inhibitor, partial curve] | –
33 | COc1ccc2nc(N=Nc3ccc(N(C)C)cc3)sc2c1 | active: 11.2 µM | –
34 | CCCSc1nsc(NC(=O)CC)n1 | inconclusive [inhibitor, single point] | –
35 | O=C(Nc1ccccc1)Nc1cccc2nsnc12 | inconclusive [inhibitor, partial curve] | –
36 | N/C(=N/OC(=O)c1ccccc1Cl)c1nonc1N | inconclusive [inhibitor, single point] | –
37 | O=C(Nc1ccccc1)N1CCCN(Cc2ccccc2F)C1 | – | inactive: -4.02%
38 | COc1cc(OC)cc(C(=O)Nc2nc3ccc(S(C)(=O)=O)cc3s2)c1 | inconclusive [inhibitor, single point] | –
39 | CCOc1cc(/C=N/NC(=O)C(=O)Nc2cc(Cl)ccc2C)ccc1O | – | inactive: -2.11%
40 | O=C(/C=C/c1cccs1)Nc1cccnc1 | inconclusive [inhibitor, single point] | –
41 | C[C@@H](CCc1ccccc1)NC[C@H](O)c1ccc(O)c(C(N)=O)c1 | – | inactive: -2.96% [at 17.1 µM]
42 | COc1ccc(/C=C/c2nc(-c3ccccc3O)n[nH]2)cc1 | inconclusive [inhibitor, partial curve] | –
43 | CCc1ccccc1NC(=O)Nc1ccc2c(c1)OCO2 | inconclusive [inhibitor, partial curve] | –
44 | Cc1ccc2c(c1)c1nnc(SCC(=O)N3CCCc4ccccc43)nc1n2CC(=O)O | active: 10 µM | –
45 | COc1ccc(-c2n(CC(=O)OC3CC(C)CCC3C(C)C)c3ccccc3[n+]2C)cc1 (stereo not drawn) | active: 3.55 µM | –
46 | COc1ccc(C(=O)Nc2ccc(C)cn2)c(OC)c1 | inconclusive [inhibitor, partial curve] | –
47 | COc1cccc(-c2nc3cc(C)ccc3o2)c1 | inconclusive [inhibitor, partial curve] | –
48 | O=C(CNC(=O)c1ccc([N+](=O)[O-])cc1)c1ccccc1 | – | inactive: -2.79%
49 | Cc1cc(C)nc(NC(=O)c2ccc3c(c2)OCO3)c1 | inconclusive [inhibitor, single point] | –
50 | COc1cccc(NC(=O)c2ncc(Cl)c(Cl)c2Cl)c1 | inconclusive [inhibitor, single point] | –
51 | O=C(N/N=C/c1ccccc1Cl)c1n[nH]c2c1CCCC2 | active: 3.16 µM | –
52 | COCCNC(=O)c1cc(OC)c(OC)cc1[N+](=O)[O-] | – | inactive: -0.0382%

Row | Structure (SMILES) | Potency | activity change, negative = inhibition
53 | Cc1ccc(/C=N/NC(=O)c2ccoc2C)o1 | inconclusive [inhibitor, single point] | –
54 | CN(C)c1ccc(N/C=C/C(=O)c2ccc(F)cc2)cc1 | inconclusive [inhibitor, partial curve] | –
55 | COc1ccc2c(c1)sc1nc(-c3ccccc3)cn12 | active: 10 µM | –
56 | O=C(Nc1ccc2nc(-c3ccco3)[nH]c2c1)c1cccs1 | inconclusive [inhibitor, partial curve] | –
57 | COCCNC(=S)Nc1ccc([N+](=O)[O-])cc1C | – | inactive: 5.57%
58 | CCOc1ccc(NC(=O)Cc2ccccc2)cc1 | inconclusive [inhibitor, single point] | –
59 | Nc1c(N=Nc2ccc(-c3ccc(N=Nc4cc(S(=O)(=O)O)c5ccccc5c4N)cc3)cc2)cc(S(=O)(=O)O)c2ccccc12 | inconclusive [inhibitor, partial curve] | –
60 | Brc1ccc(-c2nc(N/N=C/c3cccnc3)c3ccccc3n2)cc1 | active: 7.08 µM | –
61 | Nc1cc(N)nc(SCC(=O)N2CCc3ccccc32)n1 | – | inactive: -2.92%
62 | COc1ccc(OCc2cccc(C(=O)O)c2)cc1 | inconclusive [inhibitor, partial curve] | –
63 | CC1(C)OCC(CSC2=C(SCC3COC(C)(C)O3)C(=O)c3ncccc3C2=O)O1 (stereo not drawn) | – | inactive: -8.14%
64 | COc1ccc(OC)c(Nc2nc(=O)c3cccnc3s2)c1 | active: 11.2 µM | –
65 | Cc1cccc(/C(N)=N/OC(=O)c2ccc(F)cc2)c1 | active: 11.2 µM | –
66 | C/C(=N\OCC(=O)NCC(F)(F)F)c1cc2ccccc2o1 | – | inactive: 0.155%
67 | O=C(Nc1nccs1)c1ccccn1 | – | inactive: -13.7%
68 | Cc1occc1C(=O)Nc1ccc2c(c1)OCO2 | inconclusive [inhibitor, single point] | –
69 | COc1ccc(-n2c(Cc3cccn3C)nnc2SCC(=O)Nc2ccc(F)cc2F)cc1 | – | inactive: 2.54%
70 | CCOc1ccc(-c2nc(C)c(C(C)=O)n2O)cc1 | inconclusive [inhibitor, partial curve] | –
71 | CC(=O)Nc1ccc(N/C=C/C(=O)c2ccco2)cc1 | inconclusive [inhibitor, partial curve] | –
72 | CN(C(=O)c1cccc(Nc2ccc(-c3ccc4c(c3)OCCO4)nn2)c1)C1CCCCC1 | inconclusive [inhibitor, single point] | –
73 | Cc1cc(-c2ccc(N=Nc3ccc4c(S(=O)(=O)O)cc(S(=O)(=O)O)c(N)c4c3O)c(C)c2)ccc1N=Nc1ccc2c(S(=O)(=O)O)cc(S(=O)(=O)O)c(N)c2c1O | active: 10 µM | –
74 | Cc1nnc2n1NC(c1ccc(Cl)cc1)C(C(=O)N(C)C1CCCCC1)S2 (stereo not drawn) | – | inactive: 0.461%
75 | O=C(CSc1ccc(-c2ccco2)nn1)NC1CCCC1 | – | inactive: -2.04%
76 | COc1ccc(NC2=C(NCCO)C(=O)c3ccccc3C2=O)cc1 | inconclusive [inhibitor, partial curve] | –
77 | CCOc1ccc(-c2nc(-c3ccccc3C)no2)cc1 | inconclusive [inhibitor, partial curve] | –
78 | CN(C)c1ccc(NC(=S)c2ccccn2)cc1 | active: 12.6 µM | –
